The text below walks through data of the supplement of paper PMC11125491.

B1: UniProt A0EPZ9; numbered along this chain (parent)
chain: MDWQKSLTLIVALTLSRGIGLKNDLPWKLKSDMMFFSRVTSGLLVTRSTGQMNVVLMGRKTWESLPAHSRPLKNRINVVISRQEVLDLGGGAYHARSLDDALALLSQIYDSTSKIQLNRVFVIGGGELCKAAMEHSRLNRIIATVIHNEVDCDVFFPIDFRSSQSCLPWRKQDHSVLEAWVGSKVPQGKINENGFIYEFEMWIRDI

± gives the standard deviation of the averaged measurements. Growth of baker's yeast expressing single-residue variants of Pneumocystis jirovecii dihydrofolate reductase in 8.8 or 44 µM methotrexate (about 75% and 90% inhibition of the wild type). Selection coefficient per generation; 0 = like wild type, above 0 = less sensitive, below 0 = more sensitive or loss of function. No active / inactive call per row; the paper calls resistant above 0.220 (8.8 µM) or 0.243 (44 µM) together with a significance test. At 44 µM about 15% of codons end with one read or none, so the lowest values are floors (replicate rank correlation 0.74; 0.94 at 8.8 µM).

The variants in this series derive from B1. Description: selection coefficient against synonymous wild-type codons (log2 per generation); higher = faster growth than wild type. The settings on record: with Saccharomyces cerevisiae carrying the variant on a plasmid. The protocol:
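Pooled growth of yeast carrying single-residue variants of P. jirovecii dihydrofolate reductase (own DFR1 gene intact), two passages at 30 °C, three cultures, sequenced before and after. Codons with under 15 starting reads are left out; codons of one change are averaged.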

For the variant S69C, the “selection coefficient against synonymous wild-type codons (log2)” value (“selection coefficient … (log2)” for short) (methotrexate 8.8 µM) worked out at 0.139 ± 0.033 and the “selection coefficient … (log2)” value (methotrexate 44 µM) stood at 0.13 ± 0.081.
In the same order, the values of K189L are -0.108 ± 0.069 and -0.0761 ± 0.078.
K189P: the “selection coefficient … (log2)” value is, setting by setting: (methotrexate 8.8 µM) 0.00852 ± 0.052; (methotrexate 44 µM) -0.0149 ± 0.099.
Regarding N148R, the “selection coefficient … (log2)” value is, setting by setting: (methotrexate 8.8 µM) -0.053 ± 0.043; (methotrexate 44 µM) -0.167 ± 0.14.
As to N148W, the “selection coefficient … (log2)” value is -0.197 ± 0.0087 (methotrexate 8.8 µM) and -0.245 ± 0.096 (methotrexate 44 µM).
For D24T, the “selection coefficient … (log2)” value was found to be 0.00617 ± 0.078 (methotrexate 8.8 µM) and 0.0264 ± 0.16 (methotrexate 44 µM).
Take D2Q: the “selection coefficient … (log2)” value by setting is: (methotrexate 8.8 µM) 0.117 ± 0.085; (methotrexate 44 µM) 0.0235 ± 0.086.
In the same order, the values of L29W are -0.0296 ± 0.057 and -0.0749 ± 0.11.
In the same order, the values of R47F are -0.513 ± 0.13 and -0.271 ± 0.23.
In the same order, the values of E63D are -0.104 ± 0.052 and -0.0821 ± 0.075.
For the variant L128E, the “selection coefficient … (log2)” value (methotrexate 8.8 µM) is -0.48 ± 0.068 and the “selection coefficient … (log2)” value (methotrexate 44 µM) was -0.258 ± 0.12.
For the variant L128Y, the “selection coefficient … (log2)” value (methotrexate 8.8 µM) was -0.515 ± 0.17 and the “selection coefficient … (log2)” value (methotrexate 44 µM) was -0.145 ± 0.026.
Regarding T14M, the “selection coefficient … (log2)” value was -0.254 ± 0.086 (methotrexate 8.8 µM) and -0.191 ± 0.082 (methotrexate 44 µM).
In the same order, the values of P66V are -0.181 ± 0.098 and -0.105 ± 0.11.
In the same order, the values of P66G are -0.0404 ± 0.053 and -0.122 ± 0.079.
In the case of S81L, the “selection coefficient … (log2)” value is -0.703 ± 0.09 (methotrexate 8.8 µM) and -0.163 ± 0.28 (methotrexate 44 µM).
In the same order, the values of L65N are -0.0445 ± 0.078 and -0.0499 ± 0.09.
For the variant I76T, the “selection coefficient … (log2)” value was -0.554 ± 0.16 (methotrexate 8.8 µM) and -0.142 ± 0.16 (methotrexate 44 µM).
In the same order, the values of D110V are -0.237 ± 0.05 and -0.183 ± 0.12.
Take L102V: the “selection coefficient … (log2)” value reads like this: (methotrexate 8.8 µM) -0.353 ± 0.14; (methotrexate 44 µM) -0.137 ± 0.4.
As for N118L, the “selection coefficient … (log2)” value is -0.125 ± 0.044 (methotrexate 8.8 µM) and -0.145 ± 0.14 (methotrexate 44 µM).
On to H94N, for which the “selection coefficient … (log2)” value is -0.621 ± 0.15 (methotrexate 8.8 µM) and -0.275 ± 0.047 (methotrexate 44 µM).
In the same order, the values of H94L are -0.571 ± 0.13 and -0.315 ± 0.048.
In the same order, the values of G182D are -0.00144 ± 0.011 and -0.0255 ± 0.059.
In the same order, the values of T49H are -0.158 ± 0.042 and -0.147 ± 0.056.
Consider K73L, for which the “selection coefficient … (log2)” value by setting is: (methotrexate 8.8 µM) -0.246 ± 0.099; (methotrexate 44 µM) -0.225 ± 0.15.
In the same order, the values of I196D are 0.178 ± 0.02 and 0.151 ± 0.031.
In the same order, the values of V79I are -0.0155 ± 0.12 and 0.149 ± 0.055.
V79E: the “selection coefficient … (log2)” value runs as follows: (methotrexate 8.8 µM) -0.702 ± 0.12; (methotrexate 44 µM) -0.354 ± 0.047.
In the same order, the values of V55Q are -0.542 ± 0.066 and -0.295 ± 0.063.
In the case of F156I, the “selection coefficient … (log2)” value runs as follows: (methotrexate 8.8 µM) 0.205 ± 0.053; (methotrexate 44 µM) 0.159 ± 0.054.
In the same order, the values of E178R are -0.155 ± 0.077 and -0.234 ± 0.14.
E178V: the “selection coefficient … (log2)” value runs as follows: (methotrexate 8.8 µM) -0.45 ± 0.11; (methotrexate 44 µM) -0.363 ± 0.086.
Turning to E178G, the “selection coefficient … (log2)” value is -0.199 ± 0.064 (methotrexate 8.8 µM) and -0.324 ± 0.095 (methotrexate 44 µM).
In the same order, the values of K22L are -0.138 ± 0.053 and -0.129 ± 0.14.
In the same order, the values of V181G are -0.0201 ± 0.049 and -0.0689 ± 0.049.
In the same order, the values of S165Y are -0.0753 ± 0.056 and -0.0796 ± 0.062.
On to L25V, for which the “selection coefficient … (log2)” value by setting is: (methotrexate 8.8 µM) 0.124 ± 0.028; (methotrexate 44 µM) 0.0664 ± 0.058.
In the case of I142A, the “selection coefficient … (log2)” value (methotrexate 8.8 µM) was -0.215 ± 0.067 and the “selection coefficient … (log2)” value (methotrexate 44 µM) is -0.199 ± 0.08.
Regarding L15E, the “selection coefficient … (log2)” value by setting is: (methotrexate 8.8 µM) 0.237 ± 0.027; (methotrexate 44 µM) 0.244 ± 0.041.
In the same order, the values of G126Y are -0.0439 ± 0.096 and -0.0642 ± 0.087.
For the variant G126E, the “selection coefficient … (log2)” value by setting is: (methotrexate 8.8 µM) 0.508 ± 0.067; (methotrexate 44 µM) 0.707 ± 0.051.
For G126I, the “selection coefficient … (log2)” value stood at 0.32 ± 0.034 (methotrexate 8.8 µM) and 0.72 ± 0.17 (methotrexate 44 µM).
In the same order, the values of I203Y are -0.0797 ± 0.051 and -0.0767 ± 0.085.
Turning to S6L, the “selection coefficient … (log2)” value (methotrexate 8.8 µM) is -0.378 ± 0.13 and the “selection coefficient … (log2)” value (methotrexate 44 µM) was -0.113 ± 0.21.
In the same order, the values of Q107Y are -0.407 ± 0.14 and -0.094 ± 0.062.
In the same order, the values of Q107A are -0.184 ± 0.061 and -0.128 ± 0.16.
In the same order, the values of Q107W are -0.421 ± 0.037 and -0.298 ± 0.1.
Consider R38F, for which the “selection coefficient … (log2)” value is, setting by setting: (methotrexate 8.8 µM) -0.232 ± 0.013; (methotrexate 44 µM) -0.151 ± 0.073.
Consider E198R, for which the “selection coefficient … (log2)” value was -0.139 ± 0.027 (methotrexate 8.8 µM) and -0.202 ± 0.1 (methotrexate 44 µM).
In the same order, the values of E198C are -0.206 ± 0.059 and -0.246 ± 0.15.
In the same order, the values of V176C are 0.00272 ± 0.019 and -0.107 ± 0.077.
In the same order, the values of D153K are 0.204 ± 0.067 and 0.171 ± 0.053.
